Measured values from a collection of fitness landscapes (doi:10.1016/j.celrep.2020.107928).
In all, about 81,000 sequences were measured (“one-hybrid fitness for binding parS DNA”: median about -0.17, highest 2% from about 0.51 on). The list shows a part of the results.

B1: Caulobacter ParB omega fusion; a variant is named by its letters at X, in order, B8GW30 (parent)
chain: MESVVVGEPGMSEGRRGLGRGLSALLGEVDAAPAQAPGEQLGGSREAPIEILQRNPDQPRRTFREEDLEDLSNSIREKGVLQPILVRPSPDTAGEYQIVAGERAWRAAQRAGLKTVPIMVRELDDLAVLEIGIIENVQRADLNVLEEALSYKVLMEKFERTQENIAQTIGKSXSHVANXMRLLXLPDEVQSYLVSGELTAXHARAIAAAADPVALAKQIIEGGLSVRETEALARKAPNLSAGKSKGGRPPRVKDTDTQALESDLSSVLGLDVSIDHRGSTGTLTITYATLEQLDDLCNRLTRGI

Variants of: B1
Assay: one-hybrid fitness for binding parS DNA (scaled: cognate 1, non-cognate 0); higher = stronger binding
Conditions: with parS DNA site
Method in brief: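 Values were rescaled so that cognate is 1 and non-cognate is 0. Each is a fitness, the log change in a variant's read ratio to wild type from Illumina reads of plasmids before and after selection, with three replicate libraries pooled and variants under 10 reads dropped. Selection of the Caulobacter ParB libraries, four specificity codons randomised, used E. coli USO with a HIS3 reporter, site 19 bp from the promoter, on M9-minus-histidine with 0.1 mM IPTG and 5 mM 3-AT for 48 hours at 37°C.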

one-hybrid fitness for binding parS DNA, 0.999:
RVQG

one-hybrid fitness for binding parS DNA, 0.44:
RFVA

one-hybrid fitness for binding parS DNA, 0.885:
RIAT

one-hybrid fitness for binding parS DNA, 0.345:
RNRM

one-hybrid fitness for binding parS DNA, 0.978:
RCSS

one-hybrid fitness for binding parS DNA, 0.946:
RLQT

one-hybrid fitness for binding parS DNA, 0.21:
GQHV

one-hybrid fitness for binding parS DNA, 0.252:
RLNH

one-hybrid fitness for binding parS DNA, ≤ 0.2:
LFFR
SCYR
ETLV
GATK
PSIV
YSRT
YAAM
ENKT
WYYT
VNSD
QHGC
IVTK
TFWS
QAAF
VPPL
QQVT
RMAE
SCRM
NVCR
AILA
QVTG
STAI
TRTY
AQHY
YGQV
HIQS
HNER
GMMS
TSLV
CLCA
ADGL
QTSG
EQCE
QVHT
TDQG
FMIS
QRIC
NILN
SPQI
EPET
TNGS
AHYS
PAFW
ACLG
CMNF
MVRL
PLIC
ATFW
NARA
ARVN
HMNI
QEHI
DREK
FTPM
PCWL
YHLG
ALKT
HDHC
DNFR
SFAW
PDRS
SMGL
RWVD
PITG
WCRC
DNAR
PRSL
GGKT
WRRM
LHDI
QFHP
WTLG
MLYC
NAMV
LWCV
KPES
PSHM
PQER
HLWL
SSHV
MGSL
LNYS
GQPY
SITV
YWST
EMVR
LLML
HGTR
WVPF
NTTA
GLDT
NQHS
HMLS
FLNV
HSPC
HNAA
WSDV
QRCH
PTML
SKRF
PVHS
YFRR
PPWG
DIYD
NNPD
APRY
KRGW
VVVY
QWYG
YHSF
RKYP
PISA
SIYS
QFEL
WRPR
QNPT
GVES
NTAT
LFQT
VQRM
LYDS
LITT
QYRA
MGSC
SRGL
KLYT
LQKW
GCNG
SGIV
WLCT
PAKP
GDSR
FSDE
GEMR
SCFP
KRLM
QSTH
MILM
GKFS
WRPD
LSWC
GVPV
LSTA
PGPN
VANM
QNTA
CAHG
GMYC
VCST
IIES
DTQY
SGRD
DTVM
RPRA
LRSD
AHDL
FHKP
RVHP
LTSQ
WMHA
LQYR
SHST
QMAD
KVNL
SIPL
HGKA
LWKY
CSWR
EIQS
QWRH
TISG
SMAS
QDTW
AHHA
CYRN
FPVI
VQVR
PGWG
HPVA
KAYY
TNTA
MSSI
TVLW
YNIG
FETE
GRCS
RGAH
GRPC
QVKV
ILSL
TQRG
AHDR
PWYG
GKAS
YFKR
AHWT
ILWI
CKES
EFNC
SRAS
TCQI
LLCS
RMPQ
GVQR
SNTH
NCNG
HLPL
GRHF
APKR
VAPG
NAII
ILYT
LREK
DKNK
NELY
TRAA
FECS
PMYS
CITR
VVIL
VRSY
VKSL
TCMN
PSPF
KVPL
AVHL
KCRN
KLGK
MACR
WSYS
MLKK
PEPY
GLEA
MDKE
QYPH
DDGR
LSSK
FNTG
GLAS
LLQT
QALK
HFHS
SCGH
DRAM
QQPH
NGGC
YGWT
SSWW
FCSG
VLLH
PQIM
CNSM
MPVF
NSRI
VKLF
INEV
FMWV
DIHL
QQQE
MEFT
QVFC
TQSY
CWVA
FLHT
LPTQ
VGVI
KMWS
VIAC
MLWT
LAQF
RQSE
TWDG
PSHG
LVAP
EEGV
VYKM
QVVA
SMGR
QCIM
QTSM
QHLI
SPQF
CCAG
CNMK
SHHS
PQVR
RPYC
SKRY
NMYV
SKVR
FWTT
HCNT
LRIL
PPQL
EASF
PPQG
SMIK

one-hybrid fitness for binding parS DNA, 0.344:
RMWM
